According to PubChem BioAssay (NCATS):
The inconclusive results got no clear call from the source; some entries with a clear call stand among them for comparison. Where the call is inconclusive, the potency comes from a doubtful curve fit. Active and inactive are the calls of the source. The call rests on the fitted dose curve; in most records, active means well fitted curve in the direction sought with a large enough effect; inconclusive means small, poorly fitted or top-dose-only effect, or another doubt; inactive means no such curve, though single readings can be large; an effect the other way counts as inactive or inconclusive.

What follows are molecules tested on NIH3T3 (assay: Cytotoxic Profiling of Annotated Libraries Using Quantitative High-Throughput Screening (AID 1296008; further: nearly all actives have a fitted effect of over 60% in size; on max response: on the % scale 0 is the no-effect control and ±100 the full control effect)). Conditions: Five cell lines viability, CellTiter-Glo ATP luminescence, 48-72 h; max response: stronger effect = lower value.
Summary of the method: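 Compounds were pin-transferred onto cells and incubated 48 or 72 hr at 37 degree Celsius, 95% humidity. CellTiter-Glo was added, plates sat 10 min at room temperature, then ATP-coupled luminescence was imaged as the viability read-out.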
Potency means the concentration at half of the fitted maximal effect; tags describe the fitted curve by direction and shape.

SMILES | Potency | outcome | max response
COc1cc2nc(N3CCN(C)CC3)nc(NC3CCN(Cc4ccccc4)CC3)c2cc1OC | inconclusive: 20.6 µM [inhibitor, single point] | – | –
CC(=O)O[C@H]1CC(C)(C)CC2[C@]13CO[C@@]21CCC2[C@@]4(C)CC[C@H](O[C@@H]5OC[C@H](O[C@@H]6O[C@H](CO)[C@@H](O)[C@H](O)[C@H]6O[C@@H]6OC[C@@H](O[C@@H]7O[C@H](CO)[C@@H](O)[C@H](O)[C@H]7O)[C@H](O)[C@H]6O)[C@H](O)[C@H]5O[C@@H]5O[C@H](CO)[C@@H](O)[C@H](O)[C@H]5O)[C@@](C)(CO)C4CC[C@@]2(C)[C@]1(C)C[C@H]3O (stereo partly drawn) | inconclusive: 3.89 µM [inhibitor, single point] | – | –
CCOC(=O)c1cnn(-c2ccccc2)c1NC(=O)c1cc2nc(-c3ccco3)cc(C(F)(F)Cl)n2n1 | inconclusive: 16.4 µM [inhibitor, partial curve] | – | –
COc1ccc2nccc(C(=O)CC[C@@H]3CCN(CC#Cc4cc(F)cc(F)c4F)C[C@@H]3C(=O)O)c2c1 | inconclusive: 16.4 µM [inhibitor, partial curve] | – | –
CCN(CC)CCOc1ccc2c(c1)C(=O)c1cc(OCCN(CC)CC)ccc1-2 | inconclusive: 29.9 µM [inhibitor, single point] | – | –
Cc1c(NC(=O)c2cc(C(N)=O)nc3cc(F)ccc23)c(C(F)(F)F)nn1Cc1ccc(C#N)cc1 | inconclusive: 4.85 µM [inhibitor, partial curve] | – | –
O=S(=O)(N[C@H]1CCCC[C@@H]1N1CCOCC1)c1ccc(Cl)cc1 | – | inactive | –
CN1CCc2cccc3c2[C@H]1Cc1ccc(O)c(O)c1-3 | inconclusive: 33.5 µM [inhibitor, single point] | – | –
Cc1ccc(Nc2c(F)cccc2Cl)c(CC(=O)O)c1 | – | – | inactive: 2.46%
N#CC(c1ccnc(OCc2ccc(CN3CCOCC3)cc2)n1)c1nc2ccccc2s1 (stereo not drawn) | inconclusive: 20.6 µM [inhibitor, partial curve, poor fit] | – | –
Cc1cc(C)c(CNC(=O)c2cc(-c3ccc(CN4CCOCC4)cc3)cc3c2cnn3C2CCCC2)c(=O)[nH]1 | inconclusive: 33.1 µM [inhibitor, single point] | – | –
CC(=O)O[C@@](C)(C(=O)/C=C/C(C)(C)O)[C@H]1[C@H](O)C[C@@]2(C)[C@@H]3CC=C4[C@@H](C=C(O)C(=O)C4(C)C)[C@]3(C)C(=O)C[C@]12C | inconclusive: 5.02 µM [inhibitor, partial curve] | – | –
Cc1cc(C)c(Nc2ccnc(Nc3ccc(C#N)cc3)n2)c(C)c1 | active: 13 µM | – | –
C=C1C(=O)O[C@@H]2C[C@H](C)[C@@H]3CC(=O)C(C)=C3C[C@H]12 | inconclusive: 29.1 µM [inhibitor, single point] | – | –
CCNC(=O)C#Cc1ccc2c(C(=Nc3ccc(CN(C)C)cc3)c3ccccc3)c(O)[nH]c2c1 | active: 0.709 µM | – | –
CC(=O)NCC(=O)N1C2CCC1c1cc(Nc3ncc(C(F)(F)F)c(NC4CCC4)n3)ccc12 (stereo not drawn) | active: 1.3 µM | – | –
Cc1c(NC(=O)OCC2COCCN2)cn2ncnc(Nc3ccc4c(cnn4Cc4cccc(F)c4)c3)c12 (stereo not drawn) | inconclusive: 5.17 µM [inhibitor, partial curve, poor fit] | – | –
CN1CCN(c2ccc(C(=O)Nc3n[nH]c4ccc(Cc5cc(F)cc(F)c5)cc34)c(NC3CCOCC3)c2)CC1 | inconclusive: 29.1 µM [inhibitor, single point] | – | –

What follows are molecules tested on MKL-2 (assay: qHTS assay to identify novel small-molecules to repurpose for Merkel cell carcinoma treatment (AID 1296009; further: nearly all actives have a fitted effect of over 60% in size)). Conditions: MCC and control cell lines, CellTiter-Glo viability, 72 h; activity change, negative = cytotoxicity: at 46 µM (top of the series).
Summary of the method: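 qHTS format: cells treated with library compounds in DMSO across 8 (NPC) or 11 (MIPE) concentrations. Readout after 72 hr at 37 degree celsius was CellTiter-Glo luminescence.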

SMILES | Potency
C[C@@H](O[C@H]1OCCN(Cc2n[nH]c(=O)[nH]2)[C@H]1c1ccc(F)cc1)c1cc(C(F)(F)F)cc(C(F)(F)F)c1 | inconclusive: 16.8 µM [inhibitor, single point]
CCN(CC)CCCCNc1ncc2c(n1)N(C)C(=O)N(c1c(Cl)c(OC)cc(OC)c1Cl)C2 | inconclusive: 18.7 µM [inhibitor, partial curve]
CN1CCc2cccc3c2[C@H]1Cc1ccc(O)c(O)c1-3 | active: 0.841 µM

Each molecule was assayed on C33A (assay: Primary qHTS to identify gynecologic anti-cancer compounds using libraries of approved drugs and bioactive compounds (AID 1345084; further: nearly all actives have a fitted effect of over 55% in size; on activity change, negative = cytotoxicity: on the % scale 0 is the no-effect control and ±100 the full control effect)). Conditions: Gynecologic cancer cell panel viability, ATPlite luminescence, 48 h; series mostly up to 57.5 µM; activity change, negative = cytotoxicity: at the top concentration.
Summary of the method: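 Cytotoxicity screen measuring ATP content by luciferase luminescence. Each compound is applied at five concentrations for 48 h at 37 C with 5% CO2.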

SMILES | Potency | activity change, negative = cytotoxicity
CC(=O)NC1=NN(C(C)=O)C(C)(c2ccccc2)S1 (stereo not drawn) | inconclusive: 17.8 µM [cytotoxic, single point] | –
CNC(=O)c1cccc(-c2ccc3c(N4CCOC[C@@H]4C)nc(N4CCOC[C@@H]4C)nc3n2)c1 | inconclusive: 0.631 µM [cytotoxic, full curve] | –
Nc1ncnc2c1nc(N)n2[C@@H]1O[C@H](CO)[C@@H](O)[C@H]1O | active: 3.55 µM | –
COc1ccc(F)cc1-c1cc(NC(=O)[C@@H]2CCCNC2)ncc1Cl | inconclusive: 1 µM [cytotoxic, full curve, poor fit] | –
CC(CCC1(O)OC2CC3C4CC=C5CC(O[C@@H]6O[C@H](CO)[C@@H](O[C@@H]7O[C@@H](C)[C@H](O)[C@@H](O)[C@H]7O)[C@H](O)[C@H]6O[C@@H]6O[C@@H](C)[C@H](O)[C@@H](O)[C@H]6O)CCC5(C)C4CCC3(C)C2C1C)CO[C@@H]1O[C@H](CO)[C@@H](O)[C@H](O)[C@H]1O (stereo partly drawn) | inconclusive: 7.94 µM [cytotoxic, single point] | –
C=C(CCC1=C(C)[C@H]2[C@H](CC3[C@@H]4CC=C5C[C@@H](O)C[C@@H](O)[C@]5(C)C4[C@H](O)C[C@@]32C)O1)CO[C@@H]1O[C@H](CO)[C@@H](O)[C@H](O)[C@H]1O (stereo partly drawn) | active: 1.26 µM | –
C=C1C(=O)O[C@H]2/C=C(/C)[C@@H](OC(C)=O)C/C=C(\C)C[C@@H](OC(=O)/C(=C/C)COC(=O)/C(=C/C)CO)[C@@H]12 | inconclusive: 14.1 µM [cytotoxic, single point] | –
CC(Nc1ncnc2nc[nH]c12)c1cc2cccc(Cl)c2c(=O)n1-c1ccccc1 (stereo not drawn) | inconclusive: 35.5 µM [cytotoxic, single point] | –
CC1CCN(C(=O)CC#N)CC1N(C)c1ncnc2[nH]ccc12 (stereo not drawn) | – | inactive: 4.93%
C/C1=C\CCC2=CC(OC2=O)C(C)(C)/C=C/C1=O (stereo not drawn) | inconclusive: 28.2 µM [cytotoxic, single point] | –
CC(=O)O[C@H]1CC(C)(C)CC2[C@]13CO[C@@]21CCC2[C@@]4(C)CC[C@H](O[C@@H]5OC[C@H](O[C@@H]6O[C@H](CO)[C@@H](O)[C@H](O)[C@H]6O[C@@H]6OC[C@@H](O[C@@H]7O[C@H](CO)[C@@H](O)[C@H](O)[C@H]7O)[C@H](O)[C@H]6O)[C@H](O)[C@H]5O[C@@H]5O[C@H](CO)[C@@H](O)[C@H](O)[C@H]5O)[C@@](C)(CO)C4CC[C@@]2(C)[C@]1(C)C[C@H]3O (stereo partly drawn) | inconclusive: 3.98 µM [cytotoxic, partial curve, poor fit] | –
CCN(CC)CCOc1ccc2c(c1)C(=O)c1cc(OCCN(CC)CC)ccc1-2 | active: 17.8 µM | –
CN1CCc2cccc3c2[C@H]1Cc1ccc(O)c(O)c1-3 | inconclusive: 35.5 µM [cytotoxic, single point] | –
N#CC(c1ccnc(OCc2ccc(CN3CCOCC3)cc2)n1)c1nc2ccccc2s1 (stereo not drawn) | inconclusive: 11.2 µM [cytotoxic, partial curve, poor fit] | –
Cc1cc(C)c(Nc2ccnc(Nc3ccc(C#N)cc3)n2)c(C)c1 | inconclusive: 39.8 µM [cytotoxic, single point] | –
C=C1C(=O)O[C@@H]2C[C@H](C)[C@@H]3CC(=O)C(C)=C3C[C@H]12 | active: 28.2 µM | –
Cc1c(NC(=O)OCC2COCCN2)cn2ncnc(Nc3ccc4c(cnn4Cc4cccc(F)c4)c3)c12 (stereo not drawn) | inconclusive: 2.24 µM | –
